# Experimental data from PMC7819943, “Rice protein-binding microarrays: a tool to detect cis-acting elements near promoter regions in rice”.
# The other results are listed elsewhere or left out.
# Biological target: T1, OsWOX13 (Oryza sativa, UniProt Q5QMM3 1-267)
# T1 sequence: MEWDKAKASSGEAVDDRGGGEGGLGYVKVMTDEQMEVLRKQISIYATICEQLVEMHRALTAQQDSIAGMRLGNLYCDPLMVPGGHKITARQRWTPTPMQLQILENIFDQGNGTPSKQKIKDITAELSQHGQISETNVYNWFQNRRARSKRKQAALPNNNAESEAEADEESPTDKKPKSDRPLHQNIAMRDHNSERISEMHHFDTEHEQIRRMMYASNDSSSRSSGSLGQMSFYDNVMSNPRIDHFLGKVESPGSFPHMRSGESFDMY
# Assay: protein-binding microarray (RPBM); PBS, 2% BSA, 51.3 ng/ul salmon testes DNA, 50 uM zinc acetate, 200 nM TF, 25 C, 1 h; high values mean tight binding
# Details: protein: recombinant; tags: N-terminal polyhistidine and DsRed monomer fusion (pET32a); label: CyDye5-dUTP incorporated in the synthesized complementary strand; 3' TTTTT single-stranded linker to array surface; dsDNA, one strand shown
# Outline: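 Transcription factors were made in E. coli BL21-CodonPlus as N-terminal fusions to a polyhistidine tag and DsRed, then purified on Ni–NTA. After primer extension with Cy5-dUTP and blocking with 2% BSA, a custom Agilent array was exposed for 1 h at 25 °C to 200 nM protein in PBS, 2% BSA, salmon testes DNA and 50 µM zinc acetate. Washed arrays were scanned on an Axon 4000B, and the binding signal is per-feature fluorescence intensity in arbitrary units.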
row,Sequence,binding signal
1,GGTTGATTGGATTGGTGGAGCAAAACAGGTTGTGTATGGACGGAGTCACCTAGTGCAG,51700 fluorescence intensity (a.u.)
2,TTGTTGATTGCACTTGCATGAACTGCACAAAGTTATTACACGGAGTCACCTAGTGCAG,24200 fluorescence intensity (a.u.)
3,TATCAATTAATACATCAGTTTTGATAACCATTCAGATTTTCGGAGTCACCTAGTGCAG,11900 fluorescence intensity (a.u.)
4,AAAGTTATTTATATTTAATTAAGTTTGTAGGAAAATATAGCGGAGTCACCTAGTGCAG,3710 fluorescence intensity (a.u.)
5,ATATAAATTTGGAACAAATTCAACATCATGTTATCCTAGGCGGAGTCACCTAGTGCAG,4060 fluorescence intensity (a.u.)
6,TTCAAATTCAAGATTGACACAGGTGCTTGCATTTACGGCTCGGAGTCACCTAGTGCAG,16400 fluorescence intensity (a.u.)
7,AAGTAATTATTAATTCTTTTCCTATCATCTGATTCATTGTCGGAGTCACCTAGTGCAG,24600 fluorescence intensity (a.u.)
8,ATAAAATTCTTTTATAATTAGTATTTTCATTGTTGTTAGACGGAGTCACCTAGTGCAG,5460 fluorescence intensity (a.u.)
9,ATCCAGATTATTCACTTGATTACAGAGATAAACTAAATATCGGAGTCACCTAGTGCAG,4610 fluorescence intensity (a.u.)
10,TGAATTGACGCATGATAAATAAATACGCCGATCGATTGTACGGAGTCACCTAGTGCAG,5880 fluorescence intensity (a.u.)
11,TTGTATCGGAGTTGATTCTTGATTGGATTGAATTTTGTTCCGGAGTCACCTAGTGCAG,7580 fluorescence intensity (a.u.)
12,GTAAATTACACAAATTTTGAGTGCTGTGTAACAAATTTTGCGGAGTCACCTAGTGCAG,28500 fluorescence intensity (a.u.)
13,ATGATTTGTTGTTGAGTTCGGTTTGAAATCAATATAAGTACGGAGTCACCTAGTGCAG,14700 fluorescence intensity (a.u.)
14,GAATTTCAATTATATGTAAATTTTATATGTATTTCTATATCGGAGTCACCTAGTGCAG,3710 fluorescence intensity (a.u.)
15,CATAGTTAATGATTTCTTATATAGTTACTAAAATTTGGCACGGAGTCACCTAGTGCAG,7350 fluorescence intensity (a.u.)
16,TTCATAATTAATAAATAACTTGCCATACCGCATCCTCCTTCGGAGTCACCTAGTGCAG,33600 fluorescence intensity (a.u.)
17,CCAAAATTTTGGTAACTTTAATAGTAAACATGCTAGTTTGCGGAGTCACCTAGTGCAG,6870 fluorescence intensity (a.u.)
18,CCCCAAATCCCACTCCAATCACCACCGCTTCTTCTCCTCCCGGAGTCACCTAGTGCAG,6580 fluorescence intensity (a.u.)
19,AAGTGTCGTTACAGTGCTTGATTGGGCTATCAGGAGCGACCGGAGTCACCTAGTGCAG,18600 fluorescence intensity (a.u.)
20,TAAGAGTGTAATTAATTAGCTGAGATTATTCATGAGCTGACGGAGTCACCTAGTGCAG,29900 fluorescence intensity (a.u.)
21,TTATCTAATTGTTGTCAGAAAGTTTAAAGGTAACATGTTCCGGAGTCACCTAGTGCAG,12000 fluorescence intensity (a.u.)

row,Sequence,binding signal
1,TAGTTAAATTTCCATTTAACTAGGGATAAATTAAATGGCTCGGAGTCACCTAGTGCAG,20200 fluorescence intensity (a.u.)
2,ATTGATACTATAATTGCACATAAAGTTTTATTCAAGCAGTCGGAGTCACCTAGTGCAG,6130 fluorescence intensity (a.u.)
3,TGCACGCTAATTTGCCTTGCTGCTGCTGCTACTAGGGCGGCGGAGTCACCTAGTGCAG,4920 fluorescence intensity (a.u.)
4,CTAGACTGGCGTATAGCAATCCGAAGACGAAGAAAGAAGGCGGAGTCACCTAGTGCAG,3170 fluorescence intensity (a.u.)
5,ACTTTTCTACGGGAATTGACAACTGCTAGTAAAACCCATACGGAGTCACCTAGTGCAG,3570 fluorescence intensity (a.u.)
6,CTGATTAACTCTTCAATCAAATCCCTAACTTGAGTGCATGCGGAGTCACCTAGTGCAG,57200 fluorescence intensity (a.u.)
7,AGATAATTAGTGAGGGCTACTGTATGTTTTGTGATACTTGCGGAGTCACCTAGTGCAG,34200 fluorescence intensity (a.u.)
8,GGGCTCAATCAATTTGAGAGAACAAAAGGAGGTGGGCCCACGGAGTCACCTAGTGCAG,14400 fluorescence intensity (a.u.)
9,TGGATGGATTGAGATGGAGGCCGGCCGTGGCGCATGTGAGCGGAGTCACCTAGTGCAG,3950 fluorescence intensity (a.u.)
10,TTAATAATTATTGTAAAATTTAATTTATATTTATTTGAATCGGAGTCACCTAGTGCAG,22600 fluorescence intensity (a.u.)
11,TCCATGTAATTTGTGAAGATGAGCTTTGTTCCCAACGACTCGGAGTCACCTAGTGCAG,9820 fluorescence intensity (a.u.)
12,AGTTCCCTCTAATTATAATTATAATGTCCTTGGTTTAGGACGGAGTCACCTAGTGCAG,16200 fluorescence intensity (a.u.)
13,CCGCAAATTATGCAAACCACCTTTCTAAGCCAGTGGTTTTCGGAGTCACCTAGTGCAG,4120 fluorescence intensity (a.u.)
14,AAAATTGAAACTTTCAATGCTATATGTAACCAACTTTGTCCGGAGTCACCTAGTGCAG,11300 fluorescence intensity (a.u.)
15,CGCTTTAACATTTAAATTTAGCTTTAAAAGTTTATTATGGCGGAGTCACCTAGTGCAG,6480 fluorescence intensity (a.u.)
16,CGATGATTTTGTCCGGTCTCCGCGTCCGGGCCCACCTGACCGGAGTCACCTAGTGCAG,6650 fluorescence intensity (a.u.)
17,TTAACAAATTGGTTATCCTCTCCTCGCAGTTCGCTTAAAACGGAGTCACCTAGTGCAG,9140 fluorescence intensity (a.u.)
18,GGGAATTGAATGGTTCTTTGCACATATATATAAAGATGAACGGAGTCACCTAGTGCAG,13200 fluorescence intensity (a.u.)
19,ATAATTAGTGATCTATATATGCATCTCACGTAGATGGTTCCGGAGTCACCTAGTGCAG,10100 fluorescence intensity (a.u.)
20,ACCAACTAAATCGAAAATCACCGAATGGCTCGTCATCCTCCGGAGTCACCTAGTGCAG,3150 fluorescence intensity (a.u.)
21,TTAAATTATACATTAATGATTTAGCTCGTCTTAGGTGCGGCGGAGTCACCTAGTGCAG,46900 fluorescence intensity (a.u.)
